Source: ChEMBL document CHEMBL4888484, “Replenishing the malaria drug discovery pipeline: Screening and hit evaluation of the MMV Hit Generation Library 1 (HGL1) against asexual blood stage Plasmodium falciparum ,using a nano luciferase reporter read-out” (2022)
In all, about 150,000 compounds went through this assay and about 540 (0.36%) showed an effect of 50% or more. The list shows a part of the results.

test system: Plasmodium falciparum; assay: Primary screen in NF54 nanoGlo assay, in single point, at 2uM, 72h; a lower Z score goes with more inhibition; format: functional, Erythrocyte; settings: timepoint 72 hour

| Structure (SMILES) | % Inhibition | Z score |
| --- | --- | --- |
| COCCn1c(=O)n([C@H]2CCCN(C(=O)c3ccccc3OC)C2)c2ncccc21 | -9% | 1.14 |
| CC(C)Cc1ccc([C@H](C)C(=O)N2CCC(O)(C(N)=O)C2)cc1 (some centres undefined) | -21% | 3.55 |
| Nc1nc(CNS(=O)(=O)N2CCCC2)cs1 | -17% | 1.57 |
| COc1ccc(CCC(=O)N(CCN2CCCC[C@@H]2C)CCS(=O)(=O)N2CCNCC2)cc1 | 3% | -0.36 |
| Cc1cc(Cn2cc(C(F)(F)F)ccc2=O)on1 | -4% | 0.51 |
| O=C(Nc1nccc2cc(Br)ccc12)C1CC12CCOC2 (centres undefined) | -5% | 0.94 |
| Cc1ccc(CNC(=O)[C@H]2CCN(c3cnn(Cc4ccccc4)c(=O)c3)C2)o1 | -3% | 0.39 |
| C=CCOc1ccc(CN(C[C@H]2CCCO2)C(=O)c2ccc(C)o2)cc1OC | -8% | 0.79 |
| COc1ccc(CN2C(=O)c3ccccc3[C@H]2c2c(-c3cccc(OC)c3)n(C)c3ccccc23)cc1 | -1% | 0.12 |
| Cc1nn(C2CCS(=O)(=O)C2)c2c1C(c1cccc(Cl)c1)CC(=O)N2 (centres undefined) | 34% | -3.81 |
| C[C@H]1CCCCN1CC(=O)Nc1sc2c(c1C#N)CCCCC2 | -18% | 3.45 |
| CN(C)C(=O)N1CCC(Nc2ccc3nc(N(C)C)oc3c2)CC1 | 6% | -1.01 |
| CC1CCCCC1NC(=O)C1COCC(=O)N1Cc1cccs1 (centres undefined) | -7% | 1.28 |
| CC(C)(C)OC(=O)N1CC[C@H](NC(=O)Cc2cnn(-c3ccccc3)c2)C(C)(C)C1 | -5% | 0.5 |
| CN(C)c1nc2cc(NC(=O)N3CCN4CCC3C4)ccc2o1 (centres undefined) | -11% | 1.36 |
| CCOC(=O)c1cc(-c2ccc(CC)cc2)n(C2CCN(C(=O)COC)CC2)n1 | -3% | 0.35 |
| c1cc2c3c(c1)C(NC1CCOCC1)CC3CCC2 (centres undefined) | -2% | 0.28 |
| O=C([C@@H]1NCc2ncncc21)N1CCc2c(F)cccc2C1 | -1% | 0.1 |
| O=C(c1ccco1)N1CCC2(CCN(CCOCc3ccccc3)CC2)CC1 | -6% | 1.28 |
| COCC(=O)N(Cc1cccc(F)c1)c1ccc(CC(=O)NCCN2CCOCC2)cc1 | -8% | 1.45 |
| Cn1nccc1[C@@H]1CN(Cc2noc3c2CC(C)(C)CC3)CCO1 | 6% | -0.92 |
| O=C(Nc1ccc([C@H]2OCC(=O)N(Cc3cccnc3)[C@@H]2CO)cc1)C1CCC1 | 32% | -3.58 |
